From article PMC8641752
Where a chain is given by its changes, count along the chain named. No constants are given. Whether binding was seen depends on the method and setting. In cells and extracts the contact can be indirect. Some entries that bind do so weakly or less than the wild type. For part of these data: Tags and fused reporters may be left off the sequences shown.

The chains behind the UniProt entries cited, without tags or fusion partners.
UniProt P25694: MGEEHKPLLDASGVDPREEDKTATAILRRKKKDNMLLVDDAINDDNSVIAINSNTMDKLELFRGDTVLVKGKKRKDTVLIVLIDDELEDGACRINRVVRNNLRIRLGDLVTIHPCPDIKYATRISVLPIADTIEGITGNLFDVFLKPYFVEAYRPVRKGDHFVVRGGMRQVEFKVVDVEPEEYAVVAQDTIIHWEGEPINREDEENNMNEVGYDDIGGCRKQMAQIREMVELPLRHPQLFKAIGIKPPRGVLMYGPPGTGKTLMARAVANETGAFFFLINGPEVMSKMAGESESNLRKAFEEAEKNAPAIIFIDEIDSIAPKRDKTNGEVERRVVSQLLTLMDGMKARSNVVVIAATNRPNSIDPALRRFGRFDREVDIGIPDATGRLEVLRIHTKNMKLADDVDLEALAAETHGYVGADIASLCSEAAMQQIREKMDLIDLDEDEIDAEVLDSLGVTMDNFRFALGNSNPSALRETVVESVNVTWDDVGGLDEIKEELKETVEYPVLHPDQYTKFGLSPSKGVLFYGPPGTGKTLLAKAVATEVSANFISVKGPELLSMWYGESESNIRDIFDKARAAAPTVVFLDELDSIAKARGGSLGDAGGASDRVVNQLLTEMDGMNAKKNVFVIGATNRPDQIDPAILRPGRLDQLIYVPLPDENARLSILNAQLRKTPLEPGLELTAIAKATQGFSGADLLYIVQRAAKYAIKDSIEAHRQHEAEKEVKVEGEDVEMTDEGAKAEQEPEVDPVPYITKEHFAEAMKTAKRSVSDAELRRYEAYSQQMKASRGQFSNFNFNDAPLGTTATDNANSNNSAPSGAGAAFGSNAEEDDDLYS

Assays:
Experiment in all cases: co-sedimentation; Cdc48 microsome association assay: yeast lysate split into cytosolic supernatant and microsomal pellet by centrifugation; Cdc48 in the pellet of strains expressing the variant, blot with anti-Cdc48
[1] = biological target: T1, Dfm1-F107S (S. cerevisiae) (UniProt Q12743)
T1 sequence: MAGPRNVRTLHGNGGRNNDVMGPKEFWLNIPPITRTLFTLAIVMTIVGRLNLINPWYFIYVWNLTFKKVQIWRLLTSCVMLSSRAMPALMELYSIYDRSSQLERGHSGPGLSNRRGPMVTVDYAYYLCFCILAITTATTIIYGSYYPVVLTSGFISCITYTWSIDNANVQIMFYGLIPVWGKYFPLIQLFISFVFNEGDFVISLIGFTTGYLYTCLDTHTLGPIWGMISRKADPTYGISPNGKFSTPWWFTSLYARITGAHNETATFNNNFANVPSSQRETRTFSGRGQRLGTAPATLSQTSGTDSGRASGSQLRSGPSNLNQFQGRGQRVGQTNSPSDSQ

Dfm1-HA (S. cerevisiae) = biological target: T2, Dfm1-HA (S. cerevisiae) (UniProt Q12743)
T2 sequence: T1 sequence with S107F

[2] = biological target: T3, Dfm1-K67E (S. cerevisiae) (UniProt Q12743)
T3 sequence: T1 sequence with K67E, S107F

binding [1]: binds
binding (Dfm1-HA (S. cerevisiae)): binds
binding [2]: binds
Substance: Cdc48 (from UniProt P25694 1-835)
